Experimental findings from PMC9911399, “Two distinct binding modes provide the RNA-binding protein RbFox with extraordinary sequence specificity” are described below.

First the molecules themselves.
T1: RBFOX1 RRM (Homo sapiens, UniProt Q9NWB1 109-208)
T1 sequence: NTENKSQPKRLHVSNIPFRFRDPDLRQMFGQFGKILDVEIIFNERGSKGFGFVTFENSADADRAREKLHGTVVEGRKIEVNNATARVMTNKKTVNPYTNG

B1: UAAUGCG (DNA:RNA)
RNA: GGGAGACCGGAAUUCAGAUUGUCCUAAUGCGUUAAAUCCCGUCGUAGCCACCA
DNA 1: CAATCTGAATTCCGGTCTCCC
DNA 2: TGGTGGCTACGACGGGATT
B2: GAAGACU (DNA:RNA)
RNA: B1 RNA with U25G, U28G, G29A, G31U
DNA 1: CAATCTGAATTCCGGTCTCCC
DNA 2: TGGTGGCTACGACGGGATT
B3: ACCGAAG (DNA:RNA)
RNA: B1 RNA with U25A, A26C, A27C, U28G, G29A, C30A
DNA 1: CAATCTGAATTCCGGTCTCCC
DNA 2: TGGTGGCTACGACGGGATT
B4: GCCCUCU (DNA:RNA)
RNA: B1 RNA with U25G, A26C, A27C, U28C, G29U, G31U
DNA 1: CAATCTGAATTCCGGTCTCCC
DNA 2: TGGTGGCTACGACGGGATT
B5: UUACUGG (DNA:RNA)
RNA: B1 RNA with A26U, U28C, G29U, C30G
DNA 1: CAATCTGAATTCCGGTCTCCC
DNA 2: TGGTGGCTACGACGGGATT
B6: GCGGAAU (DNA:RNA)
RNA: GGGAGACCGGAAUUCAGAUUGUCCGCGGAAUUUAAAUCCCGUCGUAGCCACCA
DNA 1: CAATCTGAATTCCGGTCTCCC
DNA 2: TGGTGGCTACGACGGGATT
B7: CGACCAC (DNA:RNA)
RNA: B6 RNA with G25C, C26G, G27A, G28C, A29C, U31C
DNA 1: CAATCTGAATTCCGGTCTCCC
DNA 2: TGGTGGCTACGACGGGATT
B8: CGUCCCU (DNA:RNA)
RNA: B6 RNA with G25C, C26G, G27U, G28C, A29C, A30C
DNA 1: CAATCTGAATTCCGGTCTCCC
DNA 2: TGGTGGCTACGACGGGATT
B9: AGCACAG (DNA:RNA)
RNA: B6 RNA with G25A, C26G, G27C, G28A, A29C, U31G
DNA 1: CAATCTGAATTCCGGTCTCCC
DNA 2: TGGTGGCTACGACGGGATT
B10: UAAUCGG (DNA:RNA)
RNA: B1 RNA with G29C, C30G
DNA 1: CAATCTGAATTCCGGTCTCCC
DNA 2: TGGTGGCTACGACGGGATT
B11: ACUUGCG (DNA:RNA)
RNA: B1 RNA with U25A, A26C, A27U
DNA 1: CAATCTGAATTCCGGTCTCCC
DNA 2: TGGTGGCTACGACGGGATT
B12: CGUCUAA (DNA:RNA)
RNA: B6 RNA with G25C, C26G, G27U, G28C, A29U, U31A
DNA 1: CAATCTGAATTCCGGTCTCCC
DNA 2: TGGTGGCTACGACGGGATT
B13: ACAAACG (DNA:RNA)
RNA: B1 RNA with U25A, A26C, U28A, G29A
DNA 1: CAATCTGAATTCCGGTCTCCC
DNA 2: TGGTGGCTACGACGGGATT
B14: UAGUCUC (DNA:RNA)
RNA: B1 RNA with A27G, G29C, C30U, G31C
DNA 1: CAATCTGAATTCCGGTCTCCC
DNA 2: TGGTGGCTACGACGGGATT
B15: CAUCAGG (DNA:RNA)
RNA: B1 RNA with U25C, A27U, U28C, G29A, C30G
DNA 1: CAATCTGAATTCCGGTCTCCC
DNA 2: TGGTGGCTACGACGGGATT
B16: UAUAUGG (DNA:RNA)
RNA: B1 RNA with A27U, U28A, G29U, C30G
DNA 1: CAATCTGAATTCCGGTCTCCC
DNA 2: TGGTGGCTACGACGGGATT
B17: UGAUGUA (DNA:RNA)
RNA: B1 RNA with A26G, C30U, G31A
DNA 1: CAATCTGAATTCCGGTCTCCC
DNA 2: TGGTGGCTACGACGGGATT
B18: CAUACUG (DNA:RNA)
RNA: B1 RNA with U25C, A27U, U28A, G29C, C30U
DNA 1: CAATCTGAATTCCGGTCTCCC
DNA 2: TGGTGGCTACGACGGGATT
B19: GCACUAG (DNA:RNA)
RNA: B6 RNA with G27A, G28C, A29U, U31G
DNA 1: CAATCTGAATTCCGGTCTCCC
DNA 2: TGGTGGCTACGACGGGATT
B20: UUUAUAC (DNA:RNA)
RNA: B6 RNA with G25U, C26U, G27U, G28A, A29U, U31C
DNA 1: CAATCTGAATTCCGGTCTCCC
DNA 2: TGGTGGCTACGACGGGATT

Substitutions are numbered along the chain they refer to; changes in the protein carry UniProt numbers. This is one part of the list.

This test concerns the target T1, RBFOX1 RRM. The test is described as follows: EMSA; HiTS-Eq, 1 nM pool, 10 min; buffer printed only for the single-RNA assays: 10 mM Tris pH 7.5, 150 mM NaCl, 3.4 mM EDTA, 0.001% NP-40, 30 C. The settings on record: tags: His6 N-terminal (pET28a); label: 5' 32P. The gist of the method: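 Purified RbFox RRM (wild type or mutant) was equilibrated for 10 min in 50 µL with 1 nM of a 5′-radiolabelled pool of RNA with 7 randomized nucleotides, its flanks annealed to DNA oligonucleotides, across increasing protein concentrations. Free RNA was separated by 8% native PAGE, excised, reverse-transcribed, PCR-barcoded and sequenced on an Illumina HiSeq 2500. Relative association constants came from read-count changes of each variant against the control reaction, normalised to the cognate motif.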
(In EMSA bound probe runs differently from free probe, usually more slowly.)
B1: the binding signal was 0.0152 KA relative to UGCAUGU.
For B2, the binding signal is 0.0105 KA relative to UGCAUGU.
The same measure for B3: 0.00228 KA relative to UGCAUGU.
On to B4, for which the binding signal is 0.00803 KA relative to UGCAUGU.
B5: the binding signal was 0.0143 KA relative to UGCAUGU.
In the case of B6 it was 0.0175 KA relative to UGCAUGU; in that of B7, 0.00521 KA relative to UGCAUGU; in that of B8, 0.00441 KA relative to UGCAUGU.
Turning to B9, the binding signal is 0.00712 KA relative to UGCAUGU.
Turning to B10, the binding signal was 0.00839 KA relative to UGCAUGU.
As for B11, the binding signal was 0.0132 KA relative to UGCAUGU.
Turning to B12, the binding signal was 0.00224 KA relative to UGCAUGU.
As to B13, the binding signal is 0.0004 KA relative to UGCAUGU.
As for B14, the binding signal was 0.0162 KA relative to UGCAUGU.
In the case of B15, the binding signal is 0.00785 KA relative to UGCAUGU.
Regarding B16, the binding signal was 0.00259 KA relative to UGCAUGU.
As for B17, the binding signal is 0.0182 KA relative to UGCAUGU.
In the case of B18 it was 0.00506 KA relative to UGCAUGU; in that of B19, 0.0109 KA relative to UGCAUGU; in that of B20, 0.0021 KA relative to UGCAUGU.
